Here are results for 4 molecules from paper PMC4274898.

No constants are given. Whether binding was seen depends on the method and setting. Some binding calls cover weakened binding; strength is not graded here.

What all share (test): two-hybrid; S. cerevisiae AH109 co-transformed with pGBKT7-ARF (bait) and pGADT7-Aux/IAA (prey); growth on SD/-Ade-His-Leu-Trp against SD/-Leu/-Trp; at least 10 independent colonies; serial dilutions for strength
Test [1] has as its target T1, ARF2 (Arabidopsis thaliana) (UniProt Q94JM3).
T1 sequence: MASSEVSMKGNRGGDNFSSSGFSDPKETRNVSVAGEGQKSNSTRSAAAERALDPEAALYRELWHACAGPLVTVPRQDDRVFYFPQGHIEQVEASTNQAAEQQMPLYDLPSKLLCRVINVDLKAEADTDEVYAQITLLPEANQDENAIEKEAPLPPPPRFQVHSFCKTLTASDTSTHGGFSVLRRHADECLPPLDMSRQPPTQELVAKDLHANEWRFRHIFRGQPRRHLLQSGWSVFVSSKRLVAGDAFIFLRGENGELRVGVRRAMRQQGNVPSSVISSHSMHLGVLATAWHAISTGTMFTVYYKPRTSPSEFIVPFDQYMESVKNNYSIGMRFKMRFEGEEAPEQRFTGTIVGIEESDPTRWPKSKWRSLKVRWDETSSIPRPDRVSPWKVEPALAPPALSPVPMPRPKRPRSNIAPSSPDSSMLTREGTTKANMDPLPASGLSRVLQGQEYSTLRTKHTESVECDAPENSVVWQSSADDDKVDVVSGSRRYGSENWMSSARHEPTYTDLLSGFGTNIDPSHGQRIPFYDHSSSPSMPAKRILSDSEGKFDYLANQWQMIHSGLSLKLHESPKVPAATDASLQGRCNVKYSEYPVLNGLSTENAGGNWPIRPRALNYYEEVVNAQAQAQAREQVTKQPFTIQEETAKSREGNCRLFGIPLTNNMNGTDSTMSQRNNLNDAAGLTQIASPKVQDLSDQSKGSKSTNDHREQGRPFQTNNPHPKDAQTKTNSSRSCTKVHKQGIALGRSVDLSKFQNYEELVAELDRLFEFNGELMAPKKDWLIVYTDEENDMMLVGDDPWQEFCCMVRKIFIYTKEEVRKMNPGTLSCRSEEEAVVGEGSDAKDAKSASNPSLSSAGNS

For test [2], the target named is T2, ARF1 (Arabidopsis thaliana) (UniProt Q8L7G0).
T2 sequence: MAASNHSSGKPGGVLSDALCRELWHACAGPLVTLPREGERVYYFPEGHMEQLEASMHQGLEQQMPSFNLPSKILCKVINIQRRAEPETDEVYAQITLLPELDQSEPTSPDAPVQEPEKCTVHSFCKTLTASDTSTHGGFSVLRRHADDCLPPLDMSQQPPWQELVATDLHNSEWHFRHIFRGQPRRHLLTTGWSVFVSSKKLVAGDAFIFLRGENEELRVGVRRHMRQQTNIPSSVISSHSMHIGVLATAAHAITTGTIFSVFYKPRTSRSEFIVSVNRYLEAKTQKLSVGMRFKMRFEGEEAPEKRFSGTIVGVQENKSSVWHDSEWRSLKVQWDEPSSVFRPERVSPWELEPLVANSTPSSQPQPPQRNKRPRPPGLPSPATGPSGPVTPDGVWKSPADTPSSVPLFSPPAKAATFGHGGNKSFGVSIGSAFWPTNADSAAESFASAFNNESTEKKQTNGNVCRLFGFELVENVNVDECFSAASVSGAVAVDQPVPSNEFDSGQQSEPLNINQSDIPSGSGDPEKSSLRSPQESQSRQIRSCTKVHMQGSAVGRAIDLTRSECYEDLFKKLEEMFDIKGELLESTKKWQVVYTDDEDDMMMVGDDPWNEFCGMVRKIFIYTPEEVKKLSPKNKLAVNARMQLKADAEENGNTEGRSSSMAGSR

Test [3] addresses T3, ARF18 (Arabidopsis thaliana) (UniProt Q9C5W9).
T3 sequence: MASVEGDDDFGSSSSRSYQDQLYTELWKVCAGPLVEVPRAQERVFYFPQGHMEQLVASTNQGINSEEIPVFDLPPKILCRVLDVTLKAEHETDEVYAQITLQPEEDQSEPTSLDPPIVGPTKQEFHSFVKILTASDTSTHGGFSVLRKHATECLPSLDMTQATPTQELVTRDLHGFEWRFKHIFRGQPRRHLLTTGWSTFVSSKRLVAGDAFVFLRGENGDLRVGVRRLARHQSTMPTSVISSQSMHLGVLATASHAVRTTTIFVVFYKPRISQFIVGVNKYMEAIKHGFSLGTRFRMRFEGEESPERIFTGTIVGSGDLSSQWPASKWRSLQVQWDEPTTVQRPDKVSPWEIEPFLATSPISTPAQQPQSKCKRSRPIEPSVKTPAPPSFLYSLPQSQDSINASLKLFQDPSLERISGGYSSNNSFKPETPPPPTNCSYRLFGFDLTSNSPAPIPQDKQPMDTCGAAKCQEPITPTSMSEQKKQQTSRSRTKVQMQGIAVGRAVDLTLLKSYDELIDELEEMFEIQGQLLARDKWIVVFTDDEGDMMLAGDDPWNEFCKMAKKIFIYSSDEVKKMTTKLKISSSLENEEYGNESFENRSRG

B1: Aux/IAA6 (protein, UniProt Q38824 1-189)
chain: MAKEGLALEITELRLGLPGDNYSEISVCGSSKKKKRVLSDMMTSSALDTENENSVVSSVEDESLPVVKSQAVGWPPVCSYRRKKNNEEASKAIGYVKVSMDGVPYMRKIDLGSSNSYINLVTVLENLFGCLGIGVAKEGKKCEYIIIYEDKDRDWMLVGDVPWQMFKESCKRLRIVKRSDATGFGLQQD
In the case of B1, the binding entry in test [1] was “no binding”.

B2: Aux/IAA5 (protein, UniProt P33078 1-163)
chain: MANESNNLGLEITELRLGLPGDIVVSGESISGKKRASPEVEIDLKCEPAKKSQVVGWPPVCSYRRKNSLERTKSSYVKVSVDGAAFLRKIDLEMYKCYQDLASALQILFGCYINFDDTLKESECVPIYEDKDGDWMLAGDVPWEMFLGSCKRLRIMKRSCNRG
Regarding B2, the binding result in test [1] is reported as “no binding”.

B3: Aux/IAA34 (protein, UniProt Q9C5X0 1-185)
chain: MYCSDPPHPLHLVASDKQQKDHKLILSWKKPTMDSDPLGVFPNSPKYHPYYSQTTEFGGVIDLGLSLRTIQHEIYHSSGQRYCSNEGYRRKWGYVKVTMDGLVVGRKVCVLDHGSYSTLAHQLEDMFGMQSVSGLRLFQMESEFCLVYRDEEGLWRNAGDVPWNEFIESVERLRITRRNDAVLPF
As to B3, the binding entry in test [2] and in test [3] was “binds” in each case.

B4: Aux/IAA32 (protein, UniProt Q8RYC6 1-191)
chain: MDPNTPADFFKGSSKFHTYYSQTKKGGGVIDLGLSLRTIQHETYLPPARMIGLDGYGELIDWSQPSYNSITQLKSEDTGHQRLAQGYYNNEGESRGKYAYVKVNLDGLVVGRKVCLVDQGAYATLALQLNDMFGMQTVSGLRLFQTESEFSLVYRDREGIWRNVGDVPWKEFVESVDRMRIARRNDALLPF
Consider B4, for which the binding entry in test [2] and in test [3] was “binds” each time.
